The source gives no read counts; variants with many changes may rest on few reads.
B1: LINE1-mini (parent)
chain: GGCAGAGCUCAACACAGCGUGGCAAAGUGGCUGUGGCUAGACUGCC

Variants of: B1
Assay: self-cleavage, relative activity (ratio to wild type); higher = more cleavage; in vitro, sequencing; the parent is a self-cleaving ribozyme

Variant	self-cleavage
UGCAGAGCUCAACCCAGCGUGGCAAACUGGCUGUGGCUAGACUGCC	0.01
UGCAGGGCUCAACACAGUGUGGUUAAGUGGCUGUGGCUAGACUGCC	0.11
UGAAGAGCUCAACACAGCGUGGCAAAGUGGCUGUGGCUAGACGGCC	0.19
UGCAGAGCUCUACGCAGGGUGGCAAAGUGGCUGUGGCUAGACUGCC	0
UGCAGAGCUCAACACCGUGUUGCAAAGUGGCUGAGGCUAGACUGCC	0.02
UGCGGAGCUCAACACAUCGUGGCAAAGUGGUUGUGUAUAGACUGCC	0.94
UGCAGAGCUCAACACGGCGUGGUAAAGUGGCUGUGGCUAGACUGCC	0.1
UGCCGUGCUCAACUAAGCGUGGCUAAGUGGCUGUGGCUAGACUGCC	0.04
CGCAGAGCUCAACACAGCGUGGCAAAGAGGCUGUGGGUAGACUGCC	0.01
UGCAGUGCUCAACACAGCGCGGCAAAGUGGCUGUGGCGAGACUGCC	0
UGCUGAGCUCAACACAGCGUGGCAAACUGGCUGUGGCUAGACUGCC	0.12
UGCAGAGCUCAACACAGCGUGGCAGAGUGGCUGUGGCUAGGCUGCC	0.04
UGCAGAGCUCAACACAGCGUGGCCAAGUGGCUGCGGCUAGACUGCC	0.05
UGCAGAGAUCAACACAGCGUGGCAAAGUGGCUGUGGGUAGACUGCC	0
UGAAGAGCUCAACAGAGCGUAGCAAAGUGGCUGUGGCUAGACCGCC	0
UGCCGAGCUCAACACAGCGUGUUAAAGUGGCUGUGGAUAGACUGCU	0.17
UGCAGAGCUCAACACAGCGUGGCGAAGUGGCUCUGGAUAGACUGCC	0
UGAAGGACUCAACACAGCGUGGCAAAGUGGAUGUGGCUAGACUGCC	0.45
UGUAGAGCUCAAUACAGCGUGGCAAAGUGGGUGUGGGUAGCCUGCC	0.06

Variant	self-cleavage
UGCAGAGCUCUACUCUGCGUGGCAAAGUGGCUGUGGCUAGACUGCC	0.01
UGCAGGGCUCAACACAGCGUGGCAAAGUGGCUGUGGAUAGGCGGCC	0.03
UGCAGUGCUCAACACAGCGUGGCAAAGUGGCGGUGGCUAGACUGCC	0.06
CGCAGAGCUCAACACAGCGUGGCAAAGUGGCUGAGUCUAGACUGCC	0
UGCAGAGCUCAACCCAGCGUGGCAAAGUGGCUGUGGCUAAACUGAC	0.06
UGCAGAGCUCAACACAGCGUGGCUUAGUGGCUGUGGAUAGACUGCC	0.01
UGCAGAGCUCAACACAGCGUGGCAAUGAGGCUGUGGCUAGACUGCC	0.21
UGCAGAGCUCUACACAGCGUGACAAAUUGGCUGUGGCUACACUACC	0
UGCAGAGCUCAACACAGCGUGGCAAGUUGGCUGUGGCUAACCUGCC	0.01
UGAAGAGCUCAACACUGCGUGGCAAAGUGGCUGUGUCUAGACUGCC	0.47
UGCGGAGCUCAACACAGCGUGGCAAAGUGGCUGCGGCUAGACUGCC	0.13
CGCAGAGCUCAACACAGCGAGGCAAAGUGGCUGUGCCUAGACUGCC	0.02
CGCAGAGCUCAACACAGCGGGGCAAAGUGGCUGUGGCUUGACUGCC	0.01
UGCUGAGCUCAACACAGCGUGGCAAAGGGGCUGUGGCUAGACUACC	1.32
UGCAGGGCUAGACGCAGCGUCGCAAAGUGGCUGUGGCUAGACUGCC	0.02
UGCGGAGCUCAACACAGCGUGGCAAAGUGGCUGUGGCUCGACUGCC	0.04
UGAAGAGCUCAACGCAGCGUGGCAAAGUGUCUGUGUCUAGAUUGCC	0.3
UGUAGAGCUCAACACAGCGUGGCUAAGUGGCUGUGGCUAGUCUGCC	0.76
UGCAGAGAUCAACACAGCGUGGCAACGUGGCUGUGGCUAGACUGCC	0.1

Variant	self-cleavage
UGCCGAGCUCAUCACAGCGUGGAAAAGGGGCUGUGGCUACACUGCC	0
UGGAGAGUUCAACACAGCGUGGCAAAGUGGCUGUGGCUAGACUGCG	0.19
CGCAGAGCUCAACACAGCGUGGCAAAGUGGCUGGUCCUAGACUGUC	0.01
UGGAGAGCACAACACAGCAUGCCAAAGUGGCUGUGGCUAGACUGCC	0.06
UGCCGAGCUCAACACAGCGUGGCAAAGUGGCUGUGGCUAGACUGUC	0.03
UGCAGAGCUCAACACAGCGUGGCACAGUGGCUGUGUCUAGACUGCC	0.01
UGGAGUGCUCAACACAGCGUGGCAAAGUGGCUGUGGCUACACUGUC	0.17
UGUAGAGCGCAACACAGCGUGGCAAAGUGGCUCUGGCUAGACUGCC	0.04
UGCAGGGGUCAACACAGCGUGGCAAAGUGGCUGUGGCUAGACUGCC	0.03
UGAAGAGCUCGACACAGUGUGGCAAAGUACAUGUGGCUAGACUACC	0.01
UGCAGAGCUCAACACUGCGUGGCAAAGUGGCUGUGGCUAGGCUUCC	0.04
UGCAGCGCUCAACACAGCGUGCCAACGUGGCUGUCGCUACACGGAC	0
UGCAGUGCUCAACACAGCGUGGCAAAGUGGCUGCGGCUAGACUGCG	0.03
UGGAGAGCUUAACACAGCGAGGCAACGUGGCUGUGGCUAGACUGCC	0.07
UGCAGAGCUCGACAGAGCGUGGCAAAUCGGCUGUGGCUAGACUGCC	0.01
UGCAGAGCUCAACACAGCGUGGCAAAGUGGCUGUGGCUCGACUGCG	0.07
UGCAGAGCUCAGCAGAGCGUGGCAAAGUGGCUGUGGCUAGACUCCC	0.04
CGCAGAGCUCAACACAGCGAGGCAAAGUGACUGUGGCUAGACUGCC	0.09
